Results taken from the RNAGym collection of RNA variant scans (doi:10.7554/elife.90254).
Read counts are not given, so values of variants with three or more changes are uncertain.

B1: LINE1-mini (parent)
chain: GGCAGAGCUCAACACAGCGUGGCAAAGUGGCUGUGGCUAGACUGCC

Variants of: B1
Experiment: self-cleavage, relative activity (ratio to wild type); higher = more cleavage; in vitro, sequencing; the parent is a self-cleaving ribozyme

| Variant | self-cleavage |
| --- | --- |
| GGCAGAGCUGAACAUAGCGUGGGAAAGUGGCUGUGACUAGACUGCC [C10G C15U C23G G36A] | 0.01 |
| GGCAGAGCUGAACACAGUGUGGCAAAGUGGCUGUGGCUAGAAUGCC [C10G C18U C42A] | 0.02 |
| GGCAGAGCUGAACACAGCGUGGUAUAGUGACUGUGGCUAGACUGUC [C10G C23U A25U G30A C45U] | 0.02 |
| GGCAGAGCUGAACAGAGCGAAGCAAAGUGGCUGUGGCUAGACUGCC [C10G C15G U20A G21A] | 0.01 |
| GGCAGAGCUGAACACAGUGUGUCAAAGUGGCCGUGGCUAGACUGCC [C10G C18U G22U U32C] | 0.04 |
| GGCAGAGCUGAACAUAGUGUGGCAAAGUGGCUGUGGCUAGACUGCC [C10G C15U C18U] | 0.11 |
| GGCAGAGCUGAACAAAACGUUGCAAGGUGGCUGUGUCUAAAAUGCC [C10G C15A G17A G21U A26G G36U G40A C42A] | 0 |
| GGCAGAGCUGAACACAGCGUGGAAAAGUGGCUGUGGCUAGUCUGCC [C10G C23A A41U] | 0.02 |
| GGCAGAGCUGAACACAGUGUGGCAAAGUAGCUACGGGUAGACUUCC [C10G C18U G29A G33A U34C C37G G44U] | 0 |
| GGCAGAGCUGAACACAGCGUGGGAAAGUGGCUGUGGCUAGACUGUC [C10G C23G C45U] | 0.02 |
| GGCAGAGCUGAACAUAGCUUGGCAAAGUGGCUGUGGCUAGACUGCC [C10G C15U G19U] | 0.16 |
| GGCAGAGCUGAACACAGGGUGGCAGAGUGGCUGCGGCUAGACUGCC [C10G C18G A25G U34C] | 0 |
| GGCAGAGCUGAACAGAGCGUCGCAAAGUGGCUGUGGCUAGACUGCC [C10G C15G G21C] | 0.02 |
| GGCAGAGCUGAACACAGAGUGGCAAAGUGACUGUGGGUAGACAGCC [C10G C18A G30A C37G U43A] | 0.01 |
| GGCAGAGCUGAACACAGCGUGGUCAAGUGGCUGUGGCUAGACUGCC [C10G C23U A24C] | 0.06 |
| GGCAGAGCUGAACACAGGGUGGCAAAUUGGCUGUGGCAAGACUGCC [C10G C18G G27U U38A] | 0.06 |
| GGCAGAGCUGAACACAGGGUGGCAAAGUGGCUGAGGCUAGACUGCC [C10G C18G U34A] | 0 |
| GGCAGAGCUGAAUACAGCGUGGCAAAGUGGCUGGGGCUACACUUCU [C10G C13U U34G G40C G44U C46U] | 0 |
| GGCAGAGCUGAACAAAGCGUGGCCAAGUGGCGGUGGCUAGACUGCC [C10G C15A A24C U32G] | 0.01 |

| Variant | self-cleavage |
| --- | --- |
| GGCAGAGCUGAACACAGCGUGGUAAAGUGGCAGUGGCUAGACUGCC [C10G C23U U32A] | 0.01 |
| GGCAGAGCUGAACACAGUGUGGCAAAGAGCCUGUGGCUAGACUGCC [C10G C18U U28A G30C] | 0.25 |
| GGCAGAGCUGAACAUAACGUGGCUAAGUGGCUGUGGCUAGACUGCC [C10G C15U G17A A24U] | 0.02 |
| GGCAGAGCUGAACACAGCGUGGGAAAGUGGAUGUGGCUAGACUGCC [C10G C23G C31A] | 0.02 |
| GGCAGAGCUGAACACAGCGUGGAAAAGUGGUUGUGGCUAGACUGCC [C10G C23A C31U] | 0.12 |
| GGCAGAGCUGAACAAAGCGUGGCGAAGUGGCUGUGGCUAGACUGCC [C10G C15A A24G] | 0.02 |
| GGCAGAGCUGAACAAAGCGUGGCAAAGUGGGUGUGGCUAGACUGCC [C10G C15A C31G] | 0 |
| GGCAGAGCUGAACACAGUGUGGCAACGUGGCCGUGGCUAGACUGCC [C10G C18U A26C U32C] | 0.02 |
| GGCAGAGCUGAACAUAACGCGGCAAAGUGGCUGUGGUUAGACUGCC [C10G C15U G17A U20C C37U] | 0.01 |
| GGCAGAGCUGAACAUAGCGUGUCCAAUUGGCUGUGGCUAGACUGCC [C10G C15U G22U A24C G27U] | 0.06 |
| GGCAGAGCUGAACACAGCGUGGGAAAGUGUCUGUGGCUAGACUGAC [C10G C23G G30U C45A] | 0.03 |
| GGCAGAGCUGAACACAGCGUGGGAAAGUGGCUGAGGCUAGACUGCC [C10G C23G U34A] | 0.03 |
| GGCAGAGCUGAACACAGAGUGGAAAAGUGGCUGUGGCUAGACUGUC [C10G C18A C23A C45U] | 0.32 |
| GGCAGAGCUGAACACAGCGUGGCAAAGUGGGUGUGGCUCGACUGCC [C10G C31G A39C] | 0.03 |
| GGCAGAGCUGAACAAAGCGUGGCAAACGGGCUGUGGCUAGACUGCC [C10G C15A G27C U28G] | 0.04 |
| GGCAGAGCUGAAUACAGCGUGGCAAAGUGGCUGUGGCAAGACUCCC [C10G C13U U38A G44C] | 0 |
| GGCAGAGCUGAACAGAGCGUGCCAAAGUGGCUGUGGCUAGACUGCC [C10G C15G G22C] | 0.02 |
| GGCAGAGCUGAACAAAGUGUGGCAACGUGGCUGUGGCUAGACUGCA [C10G C15A C18U A26C C46A] | 0.02 |
| GGCAGAGCUGAACAGAGCGUGGCCAAGUGGCUGUGGCUAGACUGCC [C10G C15G A24C] | 0.01 |

| Variant | self-cleavage |
| --- | --- |
| GGCAGAGCUGAACACAGCGUGGAAAAGUGGCUGUGUCUAGAAUCCC [C10G C23A G36U C42A G44C] | 0 |
| GGCAGAGCUGAACACAGAGUGGCAAAGUGGCUGUGACUAGACUGCC [C10G C18A G36A] | 0.02 |
| GGCAGAGCUGAACAAAGCGUGGCAAAGCGGCUGUGGCUAGACUGAC [C10G C15A U28C C45A] | 0.01 |
| GGCAGAGCUGAACACAGCGUGGGAAAGUGGCUGUGGCCAGACUGCC [C10G C23G U38C] | 0.01 |
| GGCAGAGCUGAACACAGCGUGGAACAGUCGCUGUGGCUAGACUGCC [C10G C23A A25C G29C] | 0.08 |
| GGCAGAGCUGAACACAGCGUGGAAAACUGGCUCUGGCUAGACUGUC [C10G C23A G27C G33C C45U] | 0.04 |
| GGCAGAGCUGAACACAGCGUGGGUAAGUGGCUUCGGCUAGACUGCC [C10G C23G A24U G33U U34C] | 0 |
| GGCAGAGCUGAACACAGAGUGGCAAAGUGGCUGUAGCUAGACUGCC [C10G C18A G35A] | 0.03 |
| GGCAGAGCUGAACAUAGCGUGGCAAAGUGGCUGUUGCUAGCCUGCC [C10G C15U G35U A41C] | 0.03 |
| GGCAGAGCUGAACAAACCGUGGCAAAGUGGCUGUGGCUGCACUGCC [C10G C15A G17C A39G G40C] | 0 |
| GGCAGAGCUGAACACAGUGUUGCAAAGUGGCUGUGGCUAGACUGCC [C10G C18U G21U] | 0.4 |
| GGCAGAGCUGAACAUAGAGUGGCAAAGUGCCUGUGGCUUGACUGCC [C10G C15U C18A G30C A39U] | 0.03 |
| GGCAGAGCUGAACACAGCGUGGCAAAGUGGAUGUGGCUAGAUUGCC [C10G C31A C42U] | 0.01 |
| GGCAGAGCUGAACACAGAGUGGCAAAGUGCCUGUGGCUAGACUGCC [C10G C18A G30C] | 0.15 |
| GGCAGAGCUGAACACAGUGUGGCAAAGUGGCUGUGACUAGACUGCC [C10G C18U G36A] | 0.02 |
| GGCAGAGCUGAACACAGCGUGGUAAAUUUGCUGUGGCUAGACUGCC [C10G C23U G27U G29U] | 0.13 |
| GGCAGAGCUGAACACAGGGUGGCAAAGUAGCUGUGGAUAGAAUGCC [C10G C18G G29A C37A C42A] | 0 |
| GGCAGAGCUGAACACAGUGUGGCAUAGUGGCUGUGGCUAGACUAAC [C10G C18U A25U G44A C45A] | 0.04 |
